Values joined by “and” are separate entries in the source; they are usually repeats but may differ in a detail not shown here. Equal entries are not always repeated.
How the values were obtained:
[1] = biological target: T1, human ICOS (huICOS), on activated human CD4+ T cells (human, UniProt Q9Y6W8 21-199); experiment: flow cytometry on activated CD4+ T cells, 30 min on ice, detection with anti-human-IgG-PE, MFI
T1 construct: Native ICOS on primary human T cells; also called CD278; inducible T-cell co-stimulator
T1 sequence: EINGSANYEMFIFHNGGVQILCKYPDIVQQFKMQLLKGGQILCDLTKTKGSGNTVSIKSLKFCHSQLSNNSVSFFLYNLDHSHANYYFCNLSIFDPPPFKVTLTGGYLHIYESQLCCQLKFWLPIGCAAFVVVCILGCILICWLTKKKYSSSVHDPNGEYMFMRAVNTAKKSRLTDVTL

[2] = biological target: T2, mouse ICOS, on activated mouse T cells (mouse, UniProt Q9WVS0 21-200); experiment: flow cytometry (FACS, GMFI) on CD3/CD28-activated mouse splenocytes (T cells), detection with APC goat anti-human IgG (Fc gamma); the table head prints µg/ml, the x axis of the plot is [Ab] (nM)
T2 construct: whole, on cells
T2 sequence (looked up): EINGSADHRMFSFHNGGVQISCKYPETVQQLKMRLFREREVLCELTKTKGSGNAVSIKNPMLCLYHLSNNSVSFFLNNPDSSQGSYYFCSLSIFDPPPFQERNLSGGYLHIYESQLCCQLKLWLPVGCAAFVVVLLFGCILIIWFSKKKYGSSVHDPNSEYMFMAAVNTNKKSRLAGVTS

[3] = biological target: T1, human ICOS (huICOS), on activated human …; experiment: cell-based or functional assay
[4] = biological target: T1, human ICOS (huICOS), on activated human …; experiment: flow cytometry (FACS, GMFI) on CD3/CD28-activated human CD4+ T cells, detection with APC goat anti-human IgG (Fc gamma); the table head prints µg/ml, the x axis of the plot is [Ab] (nM)
[5] = biological target: T1, human ICOS (huICOS), on activated human …; experiment: flow cytometry on activated CD4+ T cells, 30 min on ice, detection with anti-human-IgG-PE, MFI; remark: listed apart in the source
[6] = biological target: T3, cynomolgus monkey ICOS, on activated cynomolgus T cells (cynomolgus monkey, UniProt A0A2K5TQR6 21-168); experiment: flow cytometry (FACS, GMFI) on CD3/CD28-activated cynomolgus PBMC (T cells), detection with APC goat anti-human IgG (Fc gamma); the table head prints µg/ml, the x axis of the plot is [Ab] (nM)
T3 construct: also called cynomolgus ICOS
T3 sequence: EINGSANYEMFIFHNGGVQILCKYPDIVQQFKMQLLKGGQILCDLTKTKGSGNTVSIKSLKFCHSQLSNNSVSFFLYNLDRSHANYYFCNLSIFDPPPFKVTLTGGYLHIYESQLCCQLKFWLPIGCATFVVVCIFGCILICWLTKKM

[7] = biological target: T4, rat ICOS, on activated rat T cells (rat, UniProt Q9R1T7 21-200); experiment: flow cytometry (FACS, GMFI) on CD3/CD28-activated rat splenocytes (T cells), detection with APC goat anti-human IgG (Fc gamma); the table head prints µg/ml, the x axis of the plot is [Ab] (nM)
T4 construct: whole, on cells
T4 sequence (looked up): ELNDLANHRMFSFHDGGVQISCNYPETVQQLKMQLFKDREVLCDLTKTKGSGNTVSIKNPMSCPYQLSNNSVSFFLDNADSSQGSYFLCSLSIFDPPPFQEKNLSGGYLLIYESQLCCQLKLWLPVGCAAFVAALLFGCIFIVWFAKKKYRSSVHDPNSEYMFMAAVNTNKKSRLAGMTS

B1: ICOS.33 IgG1f S267E (antibody)
heavy: EVQLVESGGGLVKPGGSLRLSCAASGFTFSDYFMHWVRQAPGKGLEWVGVIDTKSFNYATYYSDLVKGRFTISRDDSKNTLYLQMNSLKTEDTAVYYCTATIAVPYYFDYWGQGTLVTVSSASTKGPSVFPLAPSSKSTSGGTAALGCLVKDYFPEPVTVSWNSGALTSGVHTFPAVLQSSGLYSLSSVVTVPSSSLGTQTYICNVNHKPSNTKVDKRV[human IgG1 Fc with changes not shown]
light: DIQMTQSPSSLSASVGDRVTITCQASQDISNYLSWYQQKPGKAPKLLIYYTNLLAEGVPSRFSGSGSGTDFTFTISSLQPEDIATYYCQQYYNYRTFGPGTKVDIKRTVAAPSVFIFPPSDEQLKSGTASVVCLLNNFYPREAKVQWKVDNALQSGNSQESVTEQDSKDSTYSLSSTLTLSKADYEKHKVYACEVTHQGLSSPVTKSFNRGEC
notes: Humanized anti-human ICOS antibody, human IgG1f with S267E (EU numbering); also called ICOS.33-g1f-S267E
Q: How did the EC50 [1] turn out when B1 was run?
A: 0.0682 µg/mL

Q: What about the EC50 [2] of the same binder?
A: 0.251 µg/mL and 0.213 µg/mL

Q: What about the “mean EC50 of IFN-γ induction, CHO-scFv-CD3-CD32A/CD25-CD4+ T cell assay” value [3] of the same binder?
A: 0.083 nM

Q: What about the “mean EC50 of proliferation, CHO-scFv-CD3-CD32A/CD25-CD4+ T cell assay” value [3] of the same binder?
A: 0.083 nM

Q: What about the EC50 [4] of the same binder?
A: 0.671 µg/mL

Q: What about the EC50 [5] of the same binder?
A: 0.0823 µg/mL

Q: And the EC50 [6]?
A: 0.309 µg/mL

Q: And the EC50 [7]?
A: 0.141 µg/mL and 0.163 µg/mL
